Drawing on the supplement of paper PMC9446081, this text covers relative growth for 37 compounds.

Hit rate of the full screen: of about 39,000 compounds, about 220 (0.56%) showed activity. The list shows a part of the results.
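Note: static incubation at 37 °C against the wild-type strain, values averaged over two biological replicates.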

This assay has as its system Escherichia coli K-12 BW25113. As to the kind of experiment: relative growth (OD600 normalised to plate interquartile mean) (fraction); higher = less growth inhibition, active = 0.2 or less. The settings on record: 50 µM; LB; incubation time: overnight (16-24 h).
As to `CC(C)NC(=O)Nc1cccc2c1O[C@H](CN(C)Cc1ccc(Oc3ccccc3)cc1)[C@@H](C)CN([C@@H](C)CO)C2=O`, the relative growth was inactive: 0.944.

Regarding `C[C@@H]1CCCCO[C@@H](CN(C)CC2CCCCC2)[C@@H](C)CN([C@@H](C)CO)C(=O)c2cc(NC(=O)Nc3ccccc3)ccc2O1`, the relative growth was inactive: 1.02.

On to `C[C@@H]1CCCCO[C@@H](CN(C)C(=O)Nc2cccc3ccccc23)[C@@H](C)CN([C@H](C)CO)C(=O)c2cc(NC(=O)Nc3ccc4c(c3)OCO4)ccc2O1`, for which the relative growth was inactive: 1.02.

Regarding `COc1cccc(S(=O)(=O)N2C[C@H](O)COC[C@H]3O[C@H](CC(=O)N4CCN(c5ccccc5)CC4)CC[C@@H]32)c1`, the relative growth was inactive: 1.01.

For `Cc1noc(C)c1NC(=O)N(C)C[C@H]1Oc2ccc(NC(=O)Nc3cccc4ccccc34)cc2C(=O)N([C@@H](C)CO)C[C@H]1C`, the relative growth is inactive: 0.991.

Take `Cc1noc(C)c1NC(=O)Nc1ccc2c(c1)C(=O)N([C@H](C)CO)C[C@H](C)[C@H](CN(C)Cc1ccc3c(c1)OCO3)OCCCC[C@H](C)O2`: the relative growth was inactive: 0.99.

On to `Cc1noc(C)c1S(=O)(=O)N(C)C[C@@H]1Oc2ccc(NC(=O)CCC(F)(F)F)cc2CC(=O)N([C@H](C)CO)C[C@@H]1C`, for which the relative growth is inactive: 1.02.

Turning to `C[C@H]1CCCCO[C@H](CN(C)C(=O)Nc2ccccc2)[C@@H](C)CN([C@@H](C)CO)C(=O)c2cc(NC(=O)C3CCCCC3)ccc2O1`, the relative growth was inactive: 0.986.

Turning to `CN1C(=O)c2cc(NS(=O)(=O)c3ccc(F)cc3)ccc2OC[C@H]2O[C@@H](CC(=O)NCC(F)(F)F)CC[C@H]21`, the relative growth is inactive: 1.01.

For `COc1ccc2c3c([nH]c2c1)[C@H](CO)N(C[C@]13CCN(CC1)CC1CCOCC1)S(=O)(=O)c1cn(cn1)C`, the relative growth was inactive: 1.01.

With `C[C@@H]1CN([C@H](C)CO)C(=O)c2cc(NS(=O)(=O)c3cn(C)cn3)ccc2O[C@@H]1CN(C)Cc1ccc2c(c1)OCO2`, the relative growth was inactive: 1.

`COc1ccc(S(=O)(=O)Nc2ccc3c(c2)C(=O)N([C@@H](C)CO)C[C@@H](C)[C@@H](CN(C)C(=O)NC2CCCCC2)OCCCC[C@@H](C)O3)cc1`: the relative growth is inactive: 1.01.

In the case of `COc1ccc(CN(C)C[C@@H]2OCCCC[C@@H](C)Oc3ccc(NS(=O)(=O)c4ccccc4)cc3C(=O)N([C@@H](C)CO)C[C@@H]2C)cc1`, the relative growth is inactive: 1.01.

Take `C[C@@H]1CCCCO[C@@H](CN(C)C(=O)Nc2ccc(F)cc2)[C@@H](C)CN([C@H](C)CO)C(=O)c2cc(NC(=O)CCCN(C)C)ccc2O1`: the relative growth is inactive: 0.997.

Turning to `Cc1ccc(S(=O)(=O)N(C)C[C@H]2Oc3ccc(NC(=O)Cn4cnnn4)cc3CC(=O)N([C@H](C)CO)C[C@H]2C)cc1`, the relative growth is inactive: 0.994.

For `COc1ccc(S(=O)(=O)Nc2ccc3c(c2)C(=O)N([C@H](C)CO)C[C@@H](C)[C@H](CN(C)C(=O)Nc2ccc4c(c2)OCO4)OCCCC[C@@H](C)O3)cc1`, the relative growth was inactive: 0.997.

Turning to `NC(=O)NC(=O)C[C@H]1Nc2ccccc2NC1=O`, the relative growth is inactive: 0.971.

Consider `C[C@H]1CN([C@@H](C)CO)C(=O)c2cccc(NC(=O)NC3CCCCC3)c2O[C@H]1CN(C)Cc1ccc(-c2ccccc2)cc1`, for which the relative growth was inactive: 0.982.

Take `CC(=O)Nc1ccc(OC(C)=O)cc1`: the relative growth was inactive: 0.889.

With `C[C@H]1CN([C@@H](C)CO)C(=O)Cc2cc(NC(=O)C3CCCCC3)ccc2O[C@H]1CN(C)C(=O)Nc1cccc2ccccc12`, the relative growth was inactive: 0.998.

On to `CCC1(C)CC(=O)NC1=O` (configuration not stated), for which the relative growth is inactive: 0.995.

For the compound `OCCN1CCN(c2ncnc3c2ncn3[C@H]2CN(Cc3ccc(Cl)cc3)C[C@@H](CO)O2)CC1`, the relative growth is inactive: 1.02.

Take `C[C@@H]1CCCCO[C@@H](CN(C)Cc2ccc(C(F)(F)F)cc2)[C@H](C)CN([C@H](C)CO)C(=O)c2cc(NC(=O)Cc3ccccc3)ccc2O1`: the relative growth was inactive: 1.09.

On to `CC(C)NC(=O)Nc1ccc2c(c1)CC(=O)N([C@@H](C)CO)C[C@H](C)[C@H](CN(C)Cc1ccc(Oc3ccccc3)cc1)O2`, for which the relative growth was inactive: 0.98.

For `C[C@@H]1CN([C@H](C)CO)C(=O)c2cccc(NC(=O)c3ccc(-c4nccs4)cc3)c2O[C@@H]1CN(C)Cc1ccc(C(F)(F)F)cc1`, the relative growth is inactive: 0.996.

As to `COc1ccc(S(=O)(=O)N(C)C[C@@H]2Oc3ncc(C#CC(C)(C)O)cc3C(=O)N([C@H](C)CO)C[C@@H]2C)cc1`, the relative growth is inactive: 0.988.

In the case of `CCCNC(=O)c1cc2c(c(-c3cccc(-c4cccc(OC)c4)c3)n1)[C@H](CCO)N([S@@](=O)C(C)(C)C)C2`, the relative growth is inactive: 0.998.

For the compound `C[C@@H]1CN([C@@H](C)CO)C(=O)Cc2cc(NC(=O)Nc3ccc(F)cc3)ccc2O[C@@H]1CN(C)S(C)(=O)=O`, the relative growth was inactive: 1.02.

Take `N[C@@H](Cn1ccc(=O)n(Cc2ccccc2C(=O)O)c1=O)C(=O)O`: the relative growth was inactive: 1.01.

For the compound `COc1ccc(S(=O)(=O)Nc2cccc3c2O[C@H](CN(C)S(C)(=O)=O)[C@H](C)CN([C@@H](C)CO)C3=O)cc1`, the relative growth was inactive: 0.969.

For the compound `CN(CCCCCCCCCCN(C)C(=O)Oc1cccc([N+](C)(C)C)c1)C(=O)Oc1cccc([N+](C)(C)C)c1`, the relative growth is inactive: 0.953.

As to `C[C@H](CO)N1C[C@H](C)[C@@H](CN(C)Cc2ccc(C(F)(F)F)cc2)Oc2c(NS(C)(=O)=O)cccc2C1=O`, the relative growth is inactive: 1.01.

As to `CC(C)CC#Cc1ccc2c(c1)O[C@@H](CN(C)Cc1cncnc1)[C@H](C)CN([C@H](C)CO)S2(=O)=O`, the relative growth was inactive: 1.

Regarding `C[C@@H]1CN([C@H](C)CO)C(=O)c2cc(NS(=O)(=O)c3cccs3)ccc2O[C@@H](C)CCCCO[C@@H]1CN(C)CC1CCCCC1`, the relative growth was inactive: 0.867.

As for `C[C@@H]1CCCCO[C@@H](CN(C)C(=O)C2CCCCC2)[C@H](C)CN([C@@H](C)CO)C(=O)c2cc(NS(=O)(=O)c3ccccc3)ccc2O1`, the relative growth is inactive: 1.02.

As for `C[C@@H]1CN([C@H](C)CO)S(=O)(=O)c2ccc(C#C[C@@H](C)O)cc2O[C@H]1CN(C)C(=O)Nc1ccccc1`, the relative growth is inactive: 1.02.

Turning to `COc1ccccc1S(=O)(=O)N(C)C[C@@H]1OCc2cn(nn2)CCCC(=O)N([C@@H](C)CO)C[C@H]1C`, the relative growth is inactive: 0.962.
